Measured values: the supplement of paper PMC8512760
Some of the results follow. Many values rest on one well or one pass, so single values are uncertain.

System: SUM-149
Assay: cell viability relative to vehicle (% of vehicle); basal-like triple-negative breast cancer lines; higher = less cytotoxic
Conditions: 10 µM; 72 h
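Note: stably firefly luciferase-GFP labeled cells in 96-well plates, viability read as luciferase photon flux after d-luciferin addition, treated wells normalized to vehicle wells, single-dose high-throughput screen.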

Compound	cell viability
CCCCCOc1ccc(-c2ccc(-c3ccc(C(=O)N[C@H]4C[C@@H](O)[C@@H](O)NC(=O)[C@@H]5[C@@H](O)[C@@H](C)CN5C(=O)[C@H]([C@@H](C)O)NC(=O)[C@H]([C@H](O)[C@@H](O)c5ccc(O)cc5)NC(=O)[C@@H]5C[C@@H](O)CN5C(=O)[C@H]([C@@H](C)O)NC4=O)cc3)cc2)cc1 [Anidulafungin]	40.7
CC(=O)OCC(=O)C1(O)CCC2C3CCC4=CC(=O)C=CC4(C)C3C(O)CC21C (stereo not drawn) [Prednisolone Acetate]	160
Cl.Nc1c2c(nc3ccccc13)CCCC2 [Tacrine hydrochloride]	100
Nc1nccs1 [Aminothiazole]	77.4
CC#CCn1c(N2CCCC(N)C2)nc2c1c(=O)n(Cc1nc(C)c3ccccc3n1)c(=O)n2C (stereo not drawn) [Linagliptin (BI-1356)]	124
CC(C)(O/N=C(\C(=O)N[C@@H]1C(=O)N2C(C(=O)[O-])=C(C[n+]3ccccc3)CS[C@H]12)c1csc(N)n1)C(=O)O [Ceftazidime]	122
O=c1oc2cc(O)ccc2s1 [Tioxolone]	136
CC1(C)O[C@@H]2C[C@H]3[C@@H]4CCC5=CC(=O)C=C[C@]5(C)[C@H]4[C@@H](O)C[C@]3(C)[C@]2(C(=O)CO)O1 [Desonide]	176
O=C(O)[C@H](O)[C@@H](O)C(=O)O.c1cnc2cc3c(cc2n1)C1CNC[C@@H]3C1 [Varenicline Tartrate]	135
CCCNS(=O)(=O)Nc1ncnc(OCCOc2ncc(Br)cn2)c1-c1ccc(Br)cc1 [Macitentan]	101
NCC1OC(OC2C(N)CC(N)C(OC3OC(CO)C(O)C(N)C3O)C2O)C(O)C(O)C1O.O=S(=O)(O)O (stereo not drawn) [Kanamycin Sulfate]	79
COc1cccc2c1C(=O)c1c(O)c3c(c(O)c1C2=O)CC(O)(C(=O)CO)CC3OC1CC(N)C(O)C(C)O1.Cl (stereo not drawn) [Doxorubicin (Adriamycin) HCl]	37.4
CN(C)C(=O)COC(=O)Cc1ccc(OC(=O)c2ccc(N=C(N)N)cc2)cc1.CS(=O)(=O)O [Camostat Mesilate]	82.4
COC1=CC=C(/C(C2=CC=C(OC)C=C2)=C(Cl)/C3=CC=C(OC)C=C3)C=C1 [Chlorotrianisene]	124
Cc1cccc(N(C)C(=S)Oc2ccc3ccccc3c2)c1 [Tolnaftate]	107
NC(=O)c1ccc(I)c([N+](=O)[O-])c1 [Iniparib (BSI-201)]	96.4
c1cc(CN2CCCNCCNCCCNCC2)ccc1CN1CCCNCCNCCCNCC1 [Plerixafor (AMD3100)]	89.9
O=c1[nH]c(=O)n(C2CCCO2)cc1F (stereo not drawn)	79.3
CCOC(=O)C(CCc1ccccc1)NC(C)C(=O)N1Cc2ccccc2CC1C(=O)O.Cl (stereo not drawn) [Quinapril HCl]	121
CC12CCC3c4ccc(O)cc4CCC3C1CCC2OC(=O)CCC1CCCC1 (stereo not drawn) [Estradiol Cypionate]	91.8
Clc1ccc(C(Cn2ccnc2)OCc2csc3c(Cl)cccc23)c(Cl)c1.O=[N+]([O-])O (stereo not drawn) [Sertaconazole nitrate]	112
Cn1c(=O)cc(N2CCCC(N)C2)n(Cc2cc(F)ccc2C#N)c1=O (stereo not drawn) [Trelagliptin]	113
CCCCc1oc2ccccc2c1C(=O)c1cc(I)c(OCCN(CC)CC)c(I)c1.Cl [Amiodarone HCl]	121
CC(O)C(=O)O.CC(O)C(=O)O.CN1CCN(c2ccc3c(c2)NC(=C2C(=O)N=c4cccc(F)c4=C2N)N3)CC1 [Dovitinib Dilactic acid]	37.8
CC1C(NC(=O)C(=NOC(C)(C)C(=O)O)c2csc(N)n2)C(=O)N1S(=O)(=O)O (stereo not drawn) [Aztreonam]	116
COc1ccccc1N1CCN(CC(O)COc2cccc3ccccc23)CC1 (stereo not drawn) [Naftopidil]	95.4
CC(NC(=O)C(O)C(C)C)C(=O)NC1C(=O)N(C)CCc2ccccc21 (stereo not drawn)	130
CN=C(NC#N)NCCSCc1nc[nH]c1C [Cimetidine]	115
